# The campaign covered roughly 52,000 compounds. About 1,700 (3.3%) were called active. Rule as the data show it: active = survival mostly below about 52% (no sharp cut-off); inactive = mostly above about 56%. The list shows a part of the results.
# System: Wild type
# Assay: S. aureus survival, RN4220 and DeltatarO strains – OD600, teichoic acid synthesis inhibitors, primary screen (AID 463173)
# Settings: S. aureus RN4220 wild type/DeltatarO growth, OD600, 18 h, hits give low values, screened at 18.75 µg/mL (by protocol)
row,Structure (SMILES),survival
1,COc1ccc(CNC(=O)c2cc3c(=O)[nH]c4ccc(C)cc4c3s2)c(OC)c1,inactive: 60%
2,Cc1ccc2cc(C#N)c(NCc3ccccc3)nc2c1,inactive: 115%
3,Cc1ccc(C)c2[nH]c(=O)c(C(c3nnnn3Cc3ccccc3)N3CCN(C)CC3)cc12 (stereo not given),inactive: 117%
4,Cc1ccn2c(Nc3ccc(F)cc3)c(-c3ccc(C)o3)nc2c1,inactive: 94%
5,O=C(CSc1ncc(CO)n1Cc1ccccc1)Nc1nc2ccccc2s1,inactive: 124%
6,O=C(NC1CC(=O)N(c2ccc(F)cc2)C1)c1cccs1 (stereo not given),inactive: 88%
7,COc1cc(CN(C(=O)COc2ccc(Br)cc2)c2ccccn2)cc(OC)c1OC,inactive: 81%
8,CC(=O)N(Cc1cc2cc(C)c(C)cc2n2nnnc12)CC1COCCO1 (stereo not given),inactive: 111%
9,COc1ccc(CNC(=O)C2CCN(c3nc4ccccc4[nH]3)CC2)c(OC)c1,inactive: 130%
10,COc1cc2nc(SCc3ccc(Cl)cc3)n3nc(CCn4nc(C)cc4C)nc3c2cc1OC,inactive: 71%
11,COC(=O)c1cccc(NC(=O)C2CCN(S(=O)(=O)Cc3ccccc3)CC2)c1C,inactive: 100%
12,CCCCOc1ccc(OC(=O)c2sc3ncn(Cc4cccc(F)c4)c(=O)c3c2C)cc1,inactive: 59%
13,CC(=O)c1sc2c(c1C)c(=O)n(-c1ccc(Cl)cc1)c(=O)n2Cc1cc(=O)n2cc(Cl)ccc2n1,inactive: 78%
14,Cc1nn(C(=O)c2ccc(Cl)cc2)c(C)c1Sc1ccc(Cl)cc1,inactive: 40%
15,CCCSc1nc2sc3c(c2c(=O)n1-c1ccccc1)CCC(C)C3 (stereo not given),active: 1%
16,Cc1cc(NC(=O)CSc2nc(-c3ccccc3F)nc3c2c(=O)n(C)c(=O)n3C)no1,inactive: 88%
17,O=C(O)CCN(C(=O)C1C2C=CC(C2)C1C(=O)O)c1ccccc1 (stereo not given),inactive: 104%
18,Cc1cccc(CSc2ncccc2C(=O)O)c1,inactive: 60%
19,CCOc1ccccc1NC(=O)Cn1c(=O)n(C(C)C)c(=O)c2oc3ccccc3c21,inactive: 118%
20,CC1=NN(c2ccc(Cl)cc2)C(=O)C1,inactive: 83%
21,COc1ccc(-n2nc3c(N4CCCC(C(=O)NCCc5ccccc5C)C4)nnc(C)c3c2C)cc1 (stereo not given),inactive: 84%
22,COCCn1c(C)cc(O)c(C(c2ccc(F)cc2)N2CCC(C)CC2)c1=O (stereo not given),inactive: 68%
23,CCOC(=O)c1cc2occc2n1CC(=O)N1CCCCC1,inactive: 92%
24,COc1ccc(-n2c(=O)c3ccc(C(=O)NCc4ccc(C)cc4)cc3n(Cc3ccc(Cl)cc3)c2=O)cc1,inactive: 74%
25,Cc1ccc(N(CC(=O)Nc2ccc(C)c(Cl)c2)S(=O)(=O)c2cccs2)cc1,inactive: 87%

# Source: PubChem BioAssay AID463173 (ICCB-Longwood Screening Facility, Harvard Medical School, 2010)
